From PubChem BioAssay AID485294 (National Center for Advancing Translational Sciences (NCATS), 2010)
Among all 370,000 compounds or so, about 150 (0.041%) were called active. The shares of active, inactive and inconclusive entries below differ from those in the screen. The call rests on the fitted dose curve; in most records, active means well fitted inhibition curve with a large enough effect; inconclusive means small, poorly fitted or top-dose-only effect; inactive means flat fitted curve, though single readings scatter. No potency is given beside an inconclusive call; the fits are too rough.

target: Beta-lactamase (Escherichia coli (strain K12)) (UniProt P00811); assay: qHTS Inhibitors of AmpC Beta-Lactamase (assay with detergent); conditions: AmpC hydrolysis of nitrocefin, absorbance 480 nm, 0.01% Triton; activity change, negative = inhibition: at 114 µM (top of the series); further: nearly all actives have a fitted effect of over 25% in size;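 on activity change, negative = inhibition: 0% = no-compound wells and -100% = no-enzyme wells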
Sequence of UniProt P00811 (P00811 whole entry, looked up): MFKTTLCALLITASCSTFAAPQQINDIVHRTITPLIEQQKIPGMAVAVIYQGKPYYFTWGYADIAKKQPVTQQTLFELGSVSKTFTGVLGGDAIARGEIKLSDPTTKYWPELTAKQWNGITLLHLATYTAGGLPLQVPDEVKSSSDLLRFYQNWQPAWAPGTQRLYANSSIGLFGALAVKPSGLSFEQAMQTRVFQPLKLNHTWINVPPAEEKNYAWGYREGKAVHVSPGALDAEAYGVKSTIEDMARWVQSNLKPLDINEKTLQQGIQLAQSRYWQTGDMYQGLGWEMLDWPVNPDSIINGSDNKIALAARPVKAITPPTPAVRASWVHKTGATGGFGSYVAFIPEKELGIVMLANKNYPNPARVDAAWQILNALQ
Method in brief: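 AmpC (5.3 nM in the dispensed reagent) in 20 mM phosphate pH 7.0 with 0.01% (detergent screen) or 0.0001% Triton X-100 was preincubated with compounds for 15 min at room temperature. Nitrocefin was then added from an 800 uM solution, and hydrolysis was followed at 480 nm.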
Potency means the concentration at half of the fitted maximal effect; tags describe the fitted curve by direction and shape.

Structure (SMILES) | activity change, negative = inhibition | Potency
CC(=O)N1CCN(C(=O)CCc2nnc(CCCCc3ccccc3)o2)CC1 | inactive: 0.652% | 
O=C(CSc1nnc(CN2CCOCC2)n1-c1ccccc1)N1CCc2ccccc21 | inactive: -0.0096% | 
Cc1c(O)ccc2c(CN3CCN(Cc4ccccc4)CC3)cc(=O)oc12 | inactive: -3.88% | 
O=C(Nc1cccs1)Nc1cc(C(F)(F)F)ccc1Cl | inactive: 10.3% | 
Cc1ccc(C)c(-c2ccc(=O)n(Cc3cccc(Br)c3)n2)c1 |  | inconclusive [inhibitor, full curve, poor fit]
O=C1CN(C(=O)c2ccccc2Cl)c2ccccc2N1 |  | inconclusive [inhibitor, full curve, poor fit]
CCc1ccc(C2c3c(-c4ccccc4O)n[nH]c3C(=O)N2Cc2ccncc2)cc1 (configuration not stated) | inactive: -5.78% | 
CC1=CC(C)(C)Nc2ccc(OC(=O)CCN3C(=O)c4ccccc4C3=O)cc21 | inactive: -16.2% | 
Cc1ccc2c(c1)C1CN(C)CCC1N2C(=S)NC(=O)c1ccc(Br)cc1 (configuration not stated) | inactive: -2.36% | 
COc1cc(OC)cc(C(=O)Oc2c(Sc3ccccc3)c(C)nn2C(C)(C)C)c1 | inactive: -3.58% | 
CC(C)c1ccc2c(c1)C(=O)NC(C)(C)C2 |  | inconclusive [inhibitor, full curve]
COc1ccccc1CCNC(=O)CCSc1nc(-c2ccco2)cc(C(F)(F)F)n1 |  | inconclusive [inhibitor, single point]
CN(C)C(=O)c1cc(-c2ccccc2)no1 |  | inconclusive [inhibitor, single point]
COc1cccc(C(=O)N2CCN(Cc3ccccc3Br)CC2)c1 |  | inconclusive [inhibitor, full curve, poor fit]
CN(/N=C/c1c[nH]c2ccccc12)c1cnn(-c2ccc(F)c(Cl)c2)c(=O)c1Cl |  | inconclusive [inhibitor, full curve, poor fit]
CC(=O)Nc1ccc(C(=O)CSc2cc(C)c3cccc(C)c3n2)cc1 |  | inconclusive [inhibitor, full curve, poor fit]
O=C(CCn1c(=O)oc2ccccc21)N1CCN(c2ccccc2F)CC1 | inactive: 0.809% | 
CC(C)CCNC(=O)CCCN1C(=O)c2ccccc2Sc2ncccc21 | inactive: -3.11% | 
O=C(COC(=O)C1CCN(S(=O)(=O)c2c(Cl)cccc2Cl)CC1)NCc1ccco1 |  | inconclusive [inhibitor, full curve, poor fit]
Cc1cccc(NC(=O)NC(C)C(c2cccs2)N2CCOCC2)c1 (configuration not stated) |  | inconclusive [inhibitor, full curve, poor fit]
Fc1ccc(NC(=S)Nc2cc(-c3ccccc3)[nH]n2)cc1Cl | inactive: 4.15% | 
CCOC(=O)c1cc(-c2ccccc2C)nn1Cc1cc(CC)no1 | inactive: -11.4% | 
COc1cccc(OC)c1C(=O)Nc1nc2ccc(S(C)(=O)=O)cc2s1 |  | inconclusive [inhibitor, single point]
CCc1cccc(C)c1NC(=O)Cn1c(NCCO)nc2ccccc21 | inactive: -4.23% | 

Structure (SMILES) | activity change, negative = inhibition | Potency
Cc1ccc(C)n1-c1nnc(N2CCCC(C(=O)NCc3ccc(Cl)cc3)C2)s1 (configuration not stated) | inactive: -3.61% | 
CCOC(=O)N1CCN(C(=O)/C=C/c2ccc(OC)cc2)CC1 |  | inconclusive [inhibitor, partial curve, poor fit]
COc1ccc(N2CCN(CC(O)COC(c3ccc(F)cc3)c3ccc(F)cc3)CC2)cc1 (configuration not stated) | inactive: -2.51% | 
CCN(c1ccccc1)S(=O)(=O)c1ccc(C(=O)Nc2nnc(-c3ccco3)o2)cc1 | inactive: 5.8% | 
COCCNC(=O)/C(C#N)=C/c1cc(C)n(-c2ccc(C)cc2)c1C | inactive: 7.72% | 
COc1cc(/C=N/NC(=O)c2csc3c2CCCC3)cc(OC)c1O |  | inconclusive [inhibitor, partial curve]
CCc1ccc(NC(=O)CN2CCN(Cc3ccccc3)S2(=O)=O)cc1 | inactive: 3.86% | 
CCOC1OC(=O)C(Cl)=C1Nc1ccccc1C (configuration not stated) |  | inconclusive [inhibitor, full curve, poor fit]
COc1ccc(NC(=O)COC(=O)c2ccccc2SCC(=O)N2CCCC2)cc1 |  | inconclusive [inhibitor, partial curve]
CSc1cccc(NC(=O)CN(C)S(=O)(=O)c2ccc(F)cc2)c1 |  | inconclusive [inhibitor, single point]
COc1ccc(C)cc1NC(=O)c1nn(C)cc1Br | inactive: -4.39% | 
O=C(O)c1cccc(S(=O)(=O)Nc2ccc(OCc3ccccc3)cc2)c1 |  | inconclusive [inhibitor, full curve]
Cc1cccc[n+]1CC(=O)/C=C1\N(C)c2ccccc2C1(C)C | inactive: -4.68% | 
CCc1cc(=O)oc2cc(OCC(=O)N3CCC(C(=O)O)CC3)ccc12 |  | inconclusive [inhibitor, partial curve, poor fit]
CCOC(=O)C1CCN(S(=O)(=O)c2c(C)n(C)c(=O)n(C)c2=O)CC1 |  | inconclusive [inhibitor, full curve]
COc1ccccc1CNC(=O)CCCn1c(=O)c2ccccc2n(CC(=O)NC2CCCC2)c1=O |  | inconclusive [inhibitor, full curve, poor fit]
C=CCSc1nsc(NC(=O)Nc2cccc(C(C)=O)c2)n1 |  | inconclusive [inhibitor, full curve, poor fit]
Cc1nc(-c2ccc(Cl)cc2)sc1CCNC(=O)C(=O)Nc1ccc(F)cc1F |  | inconclusive [inhibitor, full curve, poor fit]
O=C(c1ccc([N+](=O)[O-])cc1)N(C1=NCCCCS1)c1ccccc1 | inactive: -7.2% | 
Clc1cccc(N2CCN(c3ncnc4c3nc3n4CCCCC3)CC2)c1 | inactive: 18.7% | 
Cc1ccc(S(=O)(=O)NCCC(=O)N2CCCC(C)C2)cc1 (configuration not stated) |  | inconclusive [inhibitor, partial curve, poor fit]
COc1cc(OC)c2c(c1)O[C@@H](c1ccc(OC)c(OC)c1)[C@H](O)C2 |  | inconclusive [inhibitor, partial curve]
COCCn1c(C)cc(C(=O)CSc2nnc(-c3cccnc3)n2-c2ccccc2F)c1C |  | inconclusive [inhibitor, full curve]
